In all, about 410,000 compounds went through this assay and about 850 (0.21%) were called active. The inconclusive results got no clear call from the source; some entries with a clear call stand among them for comparison. The call rests on the fitted dose curve; in most records, active means well fitted inhibition curve with a large enough effect; inconclusive means small, poorly fitted or top-dose-only effect, or another doubt; inactive means no such curve, though single readings can be large or run the other way. Potencies of inconclusive entries are left out as doubtful fits.
Each compound was assayed against Glutaminase kidney isoform, mitochondrial (Homo sapiens) (UniProt O94925) (assay: qHTS for Inhibitors of Glutaminase (GLS)). Conditions: GLS enzymatic activity, qHTS titration; series mostly up to 45.5 µM.
In short: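 Coupled fluorescence readout: glutamate oxidase/HRP/Amplex Red detect glutamate formed by hKGA from L-glutamine (1 mM solution added). Buffer 45 mM KH2PO4 pH 8.2, 0.02% Tween-20; reads at t0 and 30 min RT.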
Potency means the concentration at half of the fitted maximal effect; tags describe the fitted curve by direction and shape.

UniProt O94925, sequence (O94925 whole entry, looked up, canonical isoform): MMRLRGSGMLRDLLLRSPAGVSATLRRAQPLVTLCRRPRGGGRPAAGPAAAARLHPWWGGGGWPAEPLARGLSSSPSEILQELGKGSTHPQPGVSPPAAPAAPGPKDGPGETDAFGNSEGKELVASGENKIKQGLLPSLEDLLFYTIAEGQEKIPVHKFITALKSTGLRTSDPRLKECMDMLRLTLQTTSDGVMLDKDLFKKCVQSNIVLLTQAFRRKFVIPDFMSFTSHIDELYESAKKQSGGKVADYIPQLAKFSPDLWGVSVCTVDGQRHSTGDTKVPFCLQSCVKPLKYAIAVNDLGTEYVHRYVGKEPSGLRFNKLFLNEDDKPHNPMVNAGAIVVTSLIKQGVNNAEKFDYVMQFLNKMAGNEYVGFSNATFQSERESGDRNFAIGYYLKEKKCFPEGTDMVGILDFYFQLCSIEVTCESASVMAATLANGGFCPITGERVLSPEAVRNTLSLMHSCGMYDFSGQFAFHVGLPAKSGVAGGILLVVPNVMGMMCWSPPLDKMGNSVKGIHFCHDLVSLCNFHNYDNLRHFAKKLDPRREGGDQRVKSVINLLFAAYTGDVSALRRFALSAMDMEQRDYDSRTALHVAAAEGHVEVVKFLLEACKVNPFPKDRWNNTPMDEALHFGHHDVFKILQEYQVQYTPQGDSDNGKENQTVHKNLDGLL

Row | SMILES | Potency
1 | Cc1ccc(-c2[nH]c3c(c2-c2c(-n4cccc4)n(C)c(=O)[nH]c2=O)c(=O)[nH]c(=O)n3C)cc1 | inconclusive [inhibitor, partial curve, poor fit]
2 | Cc1ccc(C2Nc3cc(C)c(C)cc3-n3c(-c4ccccc4)c4c(=O)n(C)c(=O)n(C)c4c32)o1 (stereo not drawn) | inconclusive [inhibitor, single point]
3 | Nc1ccc(O)c(-c2nc3ccccc3s2)c1 | inconclusive [inhibitor, single point]
4 | Cc1c(-c2ccccc2)sc(N)c1C(=O)N1CCOCC1 | inconclusive [inhibitor, single point]
5 | COc1ccc(S(=O)(=O)N2CCC(NC(=O)OCc3c(Cl)cccc3Cl)CC2)cc1 | inactive
6 | Cc1nc(N2CCCCCC2)c2ccccc2n1 | inactive
7 | CCC(C)Sc1cc(-c2nc3ccccn3c2NC2CCCCC2)ccc1OC (stereo not drawn) | inconclusive [inhibitor, single point]
8 | COc1ccc(N=Nc2ccc(CO)cc2)cc1 | inactive
9 | NNC(=S)Nc1ccc(Cl)cc1 | inconclusive [inhibitor, single point]
10 | C/C(=N\NC(=O)c1cccs1)c1cccnc1 | inconclusive [inhibitor, single point]
11 | CCOC(=O)N1CCN(C(=O)c2ccccc2CCc2ccccc2)CC1 | inactive
12 | Cc1ccsc1/C=N/n1c(-c2ccccn2)n[nH]c1=S | inconclusive [inhibitor, single point]
13 | CCCCOc1ccc(C(=O)NC)cc1 | inactive
14 | CCCCC[C@H](O)/C=C/[C@@H]1[C@@H](C/C=C\CCCC(=O)OC)[C@@H](O)C[C@H]1O | inconclusive [inhibitor, single point]
15 | Cc1ccccc1NC(=O)N1CCN(S(=O)(=O)c2ccccc2)CC1 | inconclusive [inhibitor, single point]
16 | CCN(CC)c1ccc(NC(=O)OC)cc1 | inconclusive [inhibitor, single point]
17 | OCCCn1c(CCNc2nc(-c3ccc(Cl)cc3)cs2)nc2cc(C(F)(F)F)ccc21 | inactive
18 | COCC(C)NCc1cc(Br)ccc1OC (stereo not drawn) | inconclusive [inhibitor, partial curve]
19 | CCn1c(O)c(/C=N/N=C2CCCCC2)c2cc(C3=NNC(=O)CC3)ccc21 | inconclusive [inhibitor, single point]
20 | COC(=O)c1ccccc1-c1c2ccc(=N)cc-2oc2cc(N)ccc12 | inactive
21 | C=CC1=C(C(=O)O)N2C(=O)[C@@H](NC(=O)/C(=N\O)c3csc(N)n3)[C@H]2SC1 (stereo in doubt) | inconclusive [inhibitor, single point]
22 | COc1ccc(-n2c(COc3ccc(Cl)cc3Cl)n[nH]c2=S)cc1 | inconclusive [inhibitor, partial curve]

Row | SMILES | Potency
23 | C=CCn1c(=O)c(C(=O)Nc2ccc(C)cn2)c(O)c2ccccc21 | inactive
24 | COc1cccc(Nc2nc3ccccc3c(=O)[nH]2)c1 | inconclusive [inhibitor, single point]
25 | Cc1cccc2sc(NC(=O)C3CCN(S(=O)(=O)c4cc([N+](=O)[O-])ccc4Cl)CC3)nc12 | inconclusive [inhibitor, partial curve, poor fit]
26 | O=C(CNCc1ccncc1)Nc1cc(S(=O)(=O)N2CCCCC2)ccc1Cl | inactive
27 | O=C(O)CCCN1C(=O)/C(=C/c2cn(-c3ccccc3)nc2-c2cccs2)SC1=S | inconclusive [inhibitor, single point]
28 | COc1ccccc1OCC(=O)NCC1CCCN(Cc2cnn(C(C)C)c2)C1 (stereo not drawn) | inactive
29 | Cc1onc(NC(=O)c2ccc(Cl)cc2Cl)c1Br | inactive
30 | CC(C)C(=O)Nc1cc(S(=O)(=O)N2CCOCC2)ccc1N1CCCCC1 | inconclusive [inhibitor, single point]
31 | C#CCOCCOCCOCCNc1nc(N2CCN(C(=O)CCCCCCCCCCNC(=O)[C@H]([C@@H](C)CC)n3cc(CCCCN=C(N)N)nn3)CC2)nc(N2CCN(C(=O)CCCCCCCCCCNC(=O)[C@@H]([C@H](C)O)n3cc(C)nn3)CC2)n1 | inconclusive [inhibitor, single point]
32 | COc1ccc(CCC(=O)NCc2ccc3c(c2)CCN3C(=O)c2ccc(Cl)cc2)cc1 | inactive
33 | COc1ccc(OC)c(-c2[nH]nc3c2C(c2ccco2)C(C#N)=C(N)O3)c1 (stereo not drawn) | inconclusive [inhibitor, partial curve, poor fit]
34 | CCOc1ccc(NC(=O)CN(C)C(=O)c2cc3c(s2)CCC3)cc1OCC | inconclusive [inhibitor, partial curve]
35 | C/C(=N/NS(=O)(=O)c1ccc(C)cc1)c1c(O)c2ccccc2oc1=O | inactive
36 | CCOc1cc(N2CCOCC2)c(OCC)cc1NC(C)C(=O)N1CCN(CC)CC1 (stereo not drawn) | inconclusive [inhibitor, single point]
37 | Cc1ccc2cc(CN(C(=O)c3ccco3)c3cccc(C)c3C)c(=O)[nH]c2c1 | inconclusive [inhibitor, single point]
38 | O=C(NNC1=NCCN1Cc1ccccc1)c1cccc(C(F)(F)F)c1 | inconclusive [inhibitor, partial curve]
39 | O=c1cc(CSc2nnc(Nc3ccccc3)s2)nc2sccn12 | inconclusive [inhibitor, single point]
40 | CC(/C=N/n1c(COc2ccccc2)n[nH]c1=S)=C\c1ccco1 | inconclusive [inhibitor, single point]
41 | O=C(CN1CCCCC1)NNc1nc(-c2ccccc2)c2cc(Cl)ccc2n1 | inconclusive [inhibitor, partial curve, poor fit]
42 | Cn1c(CCNC(=O)c2ccc(F)cc2)nc2ccccc21 | inconclusive [inhibitor, single point]
43 | CC1=NN(C(N)=S)C(=O)C1N=Nc1ccc(O)cc1 (stereo not drawn) | inconclusive [inhibitor, single point]
